# Laboratory results as given in paper PMC9911399, “Two distinct binding modes provide the RNA-binding protein RbFox with extraordinary sequence specificity”.
# Numbering of substitutions follows the chain as printed; changes in the protein carry UniProt numbers. The list shows a part of the results.
# T1: RBFOX1 RRM RbFoxmut (Fox-RRM*) (Homo sapiens, UniProt Q9NWB1 109-208, R118D;E147R;N151S;E152T)
# T1 sequence: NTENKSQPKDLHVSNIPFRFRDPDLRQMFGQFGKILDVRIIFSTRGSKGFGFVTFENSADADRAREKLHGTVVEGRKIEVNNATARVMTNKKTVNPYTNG
# B1: UCGACUG (DNA:RNA)
# RNA: GGGAGACCGGAAUUCAGAUUGUCCUCGACUGUUAAAUCCCGUCGUAGCCACCA
# DNA 1: CAATCTGAATTCCGGTCTCCC
# DNA 2: TGGTGGCTACGACGGGATT
# B2: CUUCAUG (DNA:RNA)
# RNA: B1 RNA with U25C, C26U, G27U, A28C, C29A
# DNA 1: CAATCTGAATTCCGGTCTCCC
# DNA 2: TGGTGGCTACGACGGGATT
# B3: UAGAAAG (DNA:RNA)
# RNA: B1 RNA with C26A, C29A, U30A
# DNA 1: CAATCTGAATTCCGGTCTCCC
# DNA 2: TGGTGGCTACGACGGGATT
# B4: CGGGAGU (DNA:RNA)
# RNA: B1 RNA with U25C, C26G, A28G, C29A, U30G, G31U
# DNA 1: CAATCTGAATTCCGGTCTCCC
# DNA 2: TGGTGGCTACGACGGGATT
# B5: ACACGUG (DNA:RNA)
# RNA: B1 RNA with U25A, G27A, A28C, C29G
# DNA 1: CAATCTGAATTCCGGTCTCCC
# DNA 2: TGGTGGCTACGACGGGATT
# B6: UGCCGGC (DNA:RNA)
# RNA: B1 RNA with C26G, G27C, A28C, C29G, U30G, G31C
# DNA 1: CAATCTGAATTCCGGTCTCCC
# DNA 2: TGGTGGCTACGACGGGATT
# B7: UUCCUUC (DNA:RNA)
# RNA: B1 RNA with C26U, G27C, A28C, C29U, G31C
# DNA 1: CAATCTGAATTCCGGTCTCCC
# DNA 2: TGGTGGCTACGACGGGATT
# B8: CGUGACU (DNA:RNA)
# RNA: GGGAGACCGGAAUUCAGAUUGUCCCGUGACUUUAAAUCCCGUCGUAGCCACCA
# DNA 1: CAATCTGAATTCCGGTCTCCC
# DNA 2: TGGTGGCTACGACGGGATT
# B9: CUCCAAU (DNA:RNA)
# RNA: B8 RNA with G26U, U27C, G28C, C30A
# DNA 1: CAATCTGAATTCCGGTCTCCC
# DNA 2: TGGTGGCTACGACGGGATT
# B10: CGAGACC (DNA:RNA)
# RNA: B8 RNA with U27A, U31C
# DNA 1: CAATCTGAATTCCGGTCTCCC
# DNA 2: TGGTGGCTACGACGGGATT
# B11: UAGAUAU (DNA:RNA)
# RNA: B1 RNA with C26A, C29U, U30A, G31U
# DNA 1: CAATCTGAATTCCGGTCTCCC
# DNA 2: TGGTGGCTACGACGGGATT
# B12: CGGAAAC (DNA:RNA)
# RNA: B8 RNA with U27G, G28A, C30A, U31C
# DNA 1: CAATCTGAATTCCGGTCTCCC
# DNA 2: TGGTGGCTACGACGGGATT
# B13: GAUGGCG (DNA:RNA)
# RNA: B8 RNA with C25G, G26A, A29G, U31G
# DNA 1: CAATCTGAATTCCGGTCTCCC
# DNA 2: TGGTGGCTACGACGGGATT
# B14: AAACGAA (DNA:RNA)
# RNA: GGGAGACCGGAAUUCAGAUUGUCCAAACGAAUUAAAUCCCGUCGUAGCCACCA
# DNA 1: CAATCTGAATTCCGGTCTCCC
# DNA 2: TGGTGGCTACGACGGGATT
# B15: UCUGUGC (DNA:RNA)
# RNA: B8 RNA with C25U, G26C, A29U, C30G, U31C
# DNA 1: CAATCTGAATTCCGGTCTCCC
# DNA 2: TGGTGGCTACGACGGGATT
# B16: CGGCUGU (DNA:RNA)
# RNA: B8 RNA with U27G, G28C, A29U, C30G
# DNA 1: CAATCTGAATTCCGGTCTCCC
# DNA 2: TGGTGGCTACGACGGGATT
# B17: AUAGUCU (DNA:RNA)
# RNA: B8 RNA with C25A, G26U, U27A, A29U
# DNA 1: CAATCTGAATTCCGGTCTCCC
# DNA 2: TGGTGGCTACGACGGGATT
# B18: AUCCACG (DNA:RNA)
# RNA: B14 RNA with A26U, A27C, G29A, A30C, A31G
# DNA 1: CAATCTGAATTCCGGTCTCCC
# DNA 2: TGGTGGCTACGACGGGATT
# B19: GUGAGUA (DNA:RNA)
# RNA: B1 RNA with U25G, C26U, C29G, G31A
# DNA 1: CAATCTGAATTCCGGTCTCCC
# DNA 2: TGGTGGCTACGACGGGATT
# B20: CUUUGUC (DNA:RNA)
# RNA: B8 RNA with G26U, G28U, A29G, C30U, U31C
# DNA 1: CAATCTGAATTCCGGTCTCCC
# DNA 2: TGGTGGCTACGACGGGATT
# B21: UAAAAGC (DNA:RNA)
# RNA: B14 RNA with A25U, C28A, G29A, A30G, A31C
# DNA 1: CAATCTGAATTCCGGTCTCCC
# DNA 2: TGGTGGCTACGACGGGATT
# B22: UACGUCC (DNA:RNA)
# RNA: B8 RNA with C25U, G26A, U27C, A29U, U31C
# DNA 1: CAATCTGAATTCCGGTCTCCC
# DNA 2: TGGTGGCTACGACGGGATT
# B23: GAGUGUG (DNA:RNA)
# RNA: B1 RNA with U25G, C26A, A28U, C29G
# DNA 1: CAATCTGAATTCCGGTCTCCC
# DNA 2: TGGTGGCTACGACGGGATT
# B24: ACACGGC (DNA:RNA)
# RNA: B14 RNA with A26C, A30G, A31C
# DNA 1: CAATCTGAATTCCGGTCTCCC
# DNA 2: TGGTGGCTACGACGGGATT
# B25: CUGCAGU (DNA:RNA)
# RNA: B8 RNA with G26U, U27G, G28C, C30G
# DNA 1: CAATCTGAATTCCGGTCTCCC
# DNA 2: TGGTGGCTACGACGGGATT
# B26: CCUCGUU (DNA:RNA)
# RNA: B8 RNA with G26C, G28C, A29G, C30U
# DNA 1: CAATCTGAATTCCGGTCTCCC
# DNA 2: TGGTGGCTACGACGGGATT
# B27: AAUUACG (DNA:RNA)
# RNA: B8 RNA with C25A, G26A, G28U, U31G
# DNA 1: CAATCTGAATTCCGGTCTCCC
# DNA 2: TGGTGGCTACGACGGGATT
# B28: GUCUUUU (DNA:RNA)
# RNA: B8 RNA with C25G, G26U, U27C, G28U, A29U, C30U
# DNA 1: CAATCTGAATTCCGGTCTCCC
# DNA 2: TGGTGGCTACGACGGGATT
# B29: UUCCAAC (DNA:RNA)
# RNA: B14 RNA with A25U, A26U, A27C, G29A, A31C
# DNA 1: CAATCTGAATTCCGGTCTCCC
# DNA 2: TGGTGGCTACGACGGGATT
# B30: GUAACUU (DNA:RNA)
# RNA: B1 RNA with U25G, C26U, G27A, G31U
# DNA 1: CAATCTGAATTCCGGTCTCCC
# DNA 2: TGGTGGCTACGACGGGATT
# B31: GCAUAUA (DNA:RNA)
# RNA: B14 RNA with A25G, A26C, C28U, G29A, A30U
# DNA 1: CAATCTGAATTCCGGTCTCCC
# DNA 2: TGGTGGCTACGACGGGATT
# Target: T1, RBFOX1 RRM RbFoxmut (Fox-RRM*)
# Experiment: EMSA; HiTS-Eq, 1 nM pool, 10 min; buffer printed only for the single-RNA assays: 10 mM Tris pH 7.5, 150 mM NaCl, 3.4 mM EDTA, 0.001% NP-40, 30 C
# Conditions: tags: His6 N-terminal (pET28a); label: 5' 32P
# Outline: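 Relative association constants, normalised to the cognate motif, were derived by comparing read counts of each RNA species with those of the control reaction. The RNA sequenced was the free fraction, separated by 8% native PAGE after a 10 min equilibration in 50 µL of 1 nM 5′-radiolabelled RNA (7 randomized nucleotides) with increasing concentrations of purified wild-type or mutant RbFox RRM.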
row,Binder,binding signal
1,B1,0.175 KA relative to UGCAUGU
2,B2,0.12 KA relative to UGCAUGU
3,B3,0.0873 KA relative to UGCAUGU
4,B4,0.112 KA relative to UGCAUGU
5,B5,0.144 KA relative to UGCAUGU
6,B6,0.0831 KA relative to UGCAUGU
7,B7,0.0735 KA relative to UGCAUGU
8,B8,0.0803 KA relative to UGCAUGU
9,B9,0.0534 KA relative to UGCAUGU
10,B10,0.0759 KA relative to UGCAUGU
11,B11,0.0548 KA relative to UGCAUGU
12,B12,0.0792 KA relative to UGCAUGU
13,B13,0.13 KA relative to UGCAUGU
14,B14,0.0677 KA relative to UGCAUGU
15,B15,0.166 KA relative to UGCAUGU
16,B16,0.149 KA relative to UGCAUGU

row,Binder,binding signal
1,B17,0.065 KA relative to UGCAUGU
2,B18,0.135 KA relative to UGCAUGU
3,B19,0.172 KA relative to UGCAUGU
4,B20,0.25 KA relative to UGCAUGU
5,B21,0.0571 KA relative to UGCAUGU
6,B22,0.0781 KA relative to UGCAUGU
7,B23,0.262 KA relative to UGCAUGU
8,B24,0.115 KA relative to UGCAUGU
9,B25,0.0952 KA relative to UGCAUGU
10,B26,0.0946 KA relative to UGCAUGU
11,B27,0.133 KA relative to UGCAUGU
12,B28,0.0867 KA relative to UGCAUGU
13,B29,0.0762 KA relative to UGCAUGU
14,B30,0.104 KA relative to UGCAUGU
15,B31,0.169 KA relative to UGCAUGU
